Consider four molecules from article PMC7083877.

Chains of the proteins cited; added tags and fusions are not shown.
UniProt Q00987: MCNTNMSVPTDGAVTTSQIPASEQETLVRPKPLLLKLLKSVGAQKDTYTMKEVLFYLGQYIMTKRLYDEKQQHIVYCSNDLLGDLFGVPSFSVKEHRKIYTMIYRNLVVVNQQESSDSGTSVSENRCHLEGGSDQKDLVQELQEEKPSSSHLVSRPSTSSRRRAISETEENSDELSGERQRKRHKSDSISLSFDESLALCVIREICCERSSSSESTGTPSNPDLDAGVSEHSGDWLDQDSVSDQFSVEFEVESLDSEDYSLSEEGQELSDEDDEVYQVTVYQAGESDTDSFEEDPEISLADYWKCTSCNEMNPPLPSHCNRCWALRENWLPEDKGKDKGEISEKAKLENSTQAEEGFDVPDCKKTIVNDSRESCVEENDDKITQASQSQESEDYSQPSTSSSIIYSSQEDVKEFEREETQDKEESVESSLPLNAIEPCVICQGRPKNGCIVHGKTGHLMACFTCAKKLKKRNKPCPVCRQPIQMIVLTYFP

Results are given in words; binding and its absence hold for the method and conditions named. Binding seen in cells or lysates may run through a third protein. Some results given as binding are weak or reduced against the parent protein; the word gives no strength. For some of these results: Sequences can lack the tags named with a protein.

Test [1] addresses endogenous p53 (human (endogenous in HCT116)) (UniProt P04637). Description: proximity ligation; Duolink In Situ Red kit; methanol-fixed cells without Act. D treatment; anti-SBDS/mouse with anti-p53/rabbit.
Test [2] has the same target. Description: proximity ligation; Duolink In Situ Red kit; methanol-fixed cells treated with Act. D; anti-SBDS/mouse or anti-MDM2/mouse with anti-p53/rabbit; confocal microscopy.
For test [3] the target is unchanged. The test is described as follows: co-IP; endogenous proteins; HCT116 p53+/+ cells treated with Act. D; co-IP-IB.
The target is the same in test [4]. The test is described as follows: co-IP; endogenous proteins; HCT116 p53+/+ cells without Act. D (unstressed); co-IP-IB.
Test [5] addresses Flag-p53 fragment, amino acids 301-393 (UniProt P04637). Description: co-IP; cells transfected with ectopic SBDS and Flag-p53 fragments; co-IP-IB.
Test [6] addresses Flag-p53 fragment, amino acids 1-100 (N-terminal transactivation (TA) domain) (UniProt P04637). The test is described as above.
Test [7] deals with Flag-p53 fragment, amino acids 101-300 (UniProt P04637). The test is described as above.
Test [8] concerns the target Flag-p53 fragment, amino acids 101-393 (UniProt P04637). The description is as above.
For another test, the target named is MDM2 (co-IP of Fig. S5) (UniProt Q00987). The test is described as follows: co-IP; co-IP-IB assays of Fig. S5; constructs and cells not shown.
Test [9] has as its target p53 (exogenous, from the p53 plasmid) (UniProt P04637). Description: co-IP; H1299 cells transfected with the indicated plasmids; IP with anti-p53 (Fig. 6a) or anti-Flag (Fig. 6b), IB.

B1: endogenous SBDS (protein, UniProt Q9Y3A5 1-250)
chain: MSIFTPTNQIRLTNVAVVRMKRAGKRFEIACYKNKVVGWRSGVEKDLDEVLQTHSVFVNVSKGQVAKKEDLISAFGTDDQTEICKQILTKGEVQVSDKERHTQLEQMFRDIATIVADKCVNPETKRPYTVILIERAMKDIHYSVKTNKSTKQQALEVIKQLKEKMKIERAHMRLRFILPVNEGKKLKEKLKPLIKVIESEDYGQQLEIVCLIDPGCFREIDELIKKETKGKGSLEVLNLKDVEEGDEKFE
For B1, the binding entry was “no binding (condition: without Act. D treatment)” in test [1], “binds” in test [2], “binds” in [3] and “binds weakly” in test [4].

B2: ectopic SBDS (co-expressed with the Flag-p53 fragments, Fig. 6d) (protein, UniProt Q9Y3A5 1-250)
chain: MSIFTPTNQIRLTNVAVVRMKRAGKRFEIACYKNKVVGWRSGVEKDLDEVLQTHSVFVNVSKGQVAKKEDLISAFGTDDQTEICKQILTKGEVQVSDKERHTQLEQMFRDIATIVADKCVNPETKRPYTVILIERAMKDIHYSVKTNKSTKQQALEVIKQLKEKMKIERAHMRLRFILPVNEGKKLKEKLKPLIKVIESEDYGQQLEIVCLIDPGCFREIDELIKKETKGKGSLEVLNLKDVEEGDEKFE
Regarding B2, the binding result in test [5] is reported as “no binding”; in test [6] it was “binds”; in test [7], “no binding”; in test [8], “no binding”.

B3: SBDS (co-IP with MDM2, Fig. S5) (protein, UniProt Q9Y3A5 1-250)
chain: MSIFTPTNQIRLTNVAVVRMKRAGKRFEIACYKNKVVGWRSGVEKDLDEVLQTHSVFVNVSKGQVAKKEDLISAFGTDDQTEICKQILTKGEVQVSDKERHTQLEQMFRDIATIVADKCVNPETKRPYTVILIERAMKDIHYSVKTNKSTKQQALEVIKQLKEKMKIERAHMRLRFILPVNEGKKLKEKLKPLIKVIESEDYGQQLEIVCLIDPGCFREIDELIKKETKGKGSLEVLNLKDVEEGDEKFE
As for B3, the binding result in the test with MDM2 (co-IP of Fig. S5) was “binds weakly”.

B4: Flag-SBDS (Flag-tagged pEnter-SBDS) (protein, UniProt Q9Y3A5 1-250)
chain: MSIFTPTNQIRLTNVAVVRMKRAGKRFEIACYKNKVVGWRSGVEKDLDEVLQTHSVFVNVSKGQVAKKEDLISAFGTDDQTEICKQILTKGEVQVSDKERHTQLEQMFRDIATIVADKCVNPETKRPYTVILIERAMKDIHYSVKTNKSTKQQALEVIKQLKEKMKIERAHMRLRFILPVNEGKKLKEKLKPLIKVIESEDYGQQLEIVCLIDPGCFREIDELIKKETKGKGSLEVLNLKDVEEGDEKFE
Regarding B4, the binding entry in [9] is on record as “binds”.
